Patent publication US5877202A, “Indole derivatives useful to treat estrogen-related neoplasms and disorders” (priority 1996, dated 1999)

Tested on: estradiol-dependent luciferase reporter plasmid in MCF-7 cells
Assay: Inhibition of estradiol-stimulated transcription of luciferase reporter plasmid in MCF-7 cells
Assay type: cell-based
Conditions: Homo sapiens, MCF7, 18 to 22 hr
From the text: Shapiro, D. J., et al., Prog.

Row | SMILES | IC50 [µM]
1 | CCCCN(C)C(=O)CCCCCCCNC(=O)Cc1c(C)n(C(=O)c2ccc(Cl)cc2)c2ccc(O)cc12 [MDL 101,906, 8-[[5-Hydroxy-1-(4-chlorobenzoyl)-2-methyl-1H-indol-3-yl]-acetylamino]-octanoic acid methyl-butyl-amide] | 5.2
2 | CCCCN(C)C(=O)CCCCCCCNC(=O)Cc1c(-c2ccc(O)cc2)n(Cc2ccccc2)c2ccc(O)cc12 [MDL 103,324, 8-[[5-Hydroxy-1-benzyl-2-[(4-hydroxy)-phenyl]-1H-indol-3-yl]-acetylamino]-octanoic acid methyl-butyl-amide] | 2.7
3 | CCCCN(C)C(=O)CCCCCCCNC(=O)Cc1c(C)n(C(=O)c2ccccc2)c2ccc(O)cc12 [MDL 105,813, 8-[[5-Hydroxy-1-benzoyl-2-methyl-1H-indol-3-yl]-acetylamino]-octanoic acid methyl-butyl-amide] | 8.4
